Reference: the RNAGym collection of RNA variant scans (doi:10.1073/pnas.2313332121)
This sample is rich in variants without activity.

B1: TPR 5TU (parent)
chain: GGAUCUUCUCGAUCUAACAAAAAAGACAAAUCUGCCACAAAGCUUGAGAGCAUCUUCGGAUGCAGAGGCGGCAGCCUUCGGUGGCGCGAUAGCGCCAACGUUCUCAACUAUGACACGCAAAACGCGUGCUCCGUUGAAUGGAGUUUAUCAUG

Variants of: B1
Test: polymerase ribozyme fitness, log enrichment relative to wild type (log ratio); higher = more active; in vitro selection for triplet polymerase activity
How it was run: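 Each subunit of a heterodimeric triplet polymerase ribozyme was mutagenized into a library by PCR, transcribed, and subjected to one round of in vitro selection, run in triplicate. Libraries were annealed with a biotinylated primer, the partner subunit and triplets, incubated frozen at −7 °C, and extended constructs were gel-excised, captured on streptavidin beads and recovered by RT-PCR. Input and output libraries were sequenced on Illumina, keeping genotypes with ≥10 input reads and ≥1 read per output. Fitness is log base 2 of genotype enrichment divided by wild-type enrichment, from inverse-variance-weighted replicate averages.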

Row | Variant | polymerase ribozyme fitness (log ratio)
1 | A20U A30C G81C G86A | ≤ -4.2
2 | A20U A30U G92U | ≤ -4.2
3 | A20U A37C A52G G124U | -2.09
4 | A20U A37U C57A C87A C95U A120U A150C | ≤ -4.2
5 | A20U A40C U55A A73U | -3.94
6 | A20U A40U A49C G94A C99A G143A | ≤ -4.2
7 | A20U A40U C69A | -2.77
8 | A20U A40U C96U C103G U104C G126C | ≤ -4.2
9 | A20U A41C U90G A97C | ≤ -4.2
10 | A20U A41U C114U G126A U135G U146C | ≤ -4.2
11 | A20U A47C C57U A64C G84C U148G | ≤ -4.2
12 | A20U A47C C57U U77G C96G U130G | ≤ -4.2
13 | A20U A49G A66C A73U C79U A106U A107C | ≤ -4.2
14 | A20U A52C | -2.87
15 | A20U A52G C75U G88A C103G A119C | ≤ -4.2
16 | A20U A52U A89C | -3.39
17 | A20U A52U C76A C93A | ≤ -4.2
18 | A20U A52U U55A C85A U111G C125U G141C U146C | ≤ -4.2
19 | A20U A73C G136U A137G | ≤ -4.2
20 | A20U A97U | -2.04
21 | A20U C27U A41G U82A C93G A137C G141A | ≤ -4.2

Row | Variant | polymerase ribozyme fitness (log ratio)
22 | A20U C27U A41U G42U U44A C87G | ≤ -4.2
23 | A20U C32G C96G A120U | ≤ -4.2
24 | A20U C36A A41G U56A G65U A119G U127C | ≤ -4.2
25 | A20U C36A C57G G68U C87A G126A G141C A142G | ≤ -4.2
26 | A20U C36U C54G G81C G92A C99U | ≤ -4.2
27 | A20U C36U G92A A106C G126U U130G | ≤ -4.2
28 | A20U C38U A64G G117U U135C | ≤ -4.2
29 | A20U C43U C54U C99G G143U A147C | ≤ -4.2
30 | A20U C54U C85A C114U C116G | ≤ -4.2
31 | A20U C57A | -1.36
32 | A20U C57A G71U C87A | ≤ -4.2
33 | A20U C57G C93U C123U | -2.57
34 | A20U C96G A150U | 0.47
35 | A20U C99U A107G U135G G140A A142G | ≤ -4.2
36 | A20U G25C C57U A113C G141C | ≤ -4.2
37 | A20U G25C G124C | ≤ -4.2
38 | A20U G25U C27G A41U A49G U82G | ≤ -4.2
39 | A20U G42A U61A C85U | ≤ -4.2
40 | A20U G46A C76A C87G G94C C105G U144A | ≤ -4.2
41 | A20U G48A U53A G71U A121G | ≤ -4.2
42 | A20U G50A A89U A91G | ≤ -4.2

Row | Variant | polymerase ribozyme fitness (log ratio)
43 | A20U G50A G88C C129A | ≤ -4.2
44 | A20U G50C G67C U78G C96A A142C | ≤ -4.2
45 | A20U G50U A73U C87A C95G A119U U146G U151G | ≤ -4.2
46 | A20U G58A C96U U111G G124A U148A | ≤ -4.2
47 | A20U G58C G59C C72U C93U | ≤ -4.2
48 | A20U G71C U77G C93U | ≤ -4.2
49 | A20U G81C A147U | -0.168
50 | A20U G83A C96G C118U U134A U144A | -3.46
51 | A20U G83A G84C U111G U134C U145A A147G U151G | ≤ -4.2
52 | A20U G83U U90G C99A A107U U148A | ≤ -4.2
53 | A20U G86A C87G A91U C118A | ≤ -4.2
54 | A20U U31C A49C C57U A60G G62C C96A | -4.15
55 | A20U U44A A49C A150U | ≤ -4.2
56 | A20U U45A C87G | -4.13
57 | A20U U55A C72G U82A G126U U127G C132A | ≤ -4.2
58 | A20U U55A C87G G88A C103A A107G | ≤ -4.2
59 | A20U U55A G68U C85G C105U G124A G140C | ≤ -4.2
60 | A20U U55A G80C G86C A115U | ≤ -4.2
61 | A20U U56A C79A G92A C95A C96G U148A | ≤ -4.2
62 | A20U U56A G80U C93A G100U G124C G136C | ≤ -4.2
63 | A20U U56A G94C A98G G133A | ≤ -4.2

Row | Variant | polymerase ribozyme fitness (log ratio)
64 | A20U U61G A89C A91C C93A U101A | ≤ -4.2
65 | A20U U82C C103U A115U G126C U144A | ≤ -4.2
66 | A20U U82G C93U | -2.36
67 | A21C A24G A39C G86U G133C | ≤ -4.2
68 | A21C A24U A40G U144A | -3.76
69 | A21C A26U A60C G70C G81A G84U G92A A115U | ≤ -4.2
70 | A21C A28G A29G A30U U55A C63U C76A | ≤ -4.2
71 | A21C A28G A73G C85A | ≤ -4.2
72 | A21C A29G A30U A40U U45G C96G | ≤ -4.2
73 | A21C A39G A52G C85U G88C U109G | ≤ -4.2
74 | A21C A49G G84U G100C U101G G136A A142U | ≤ -4.2
75 | A21C A49U U111C U151C | ≤ -4.2
76 | A21C A52C C57U G68A C76G C93U C95U C105U | ≤ -4.2
77 | A21C A52U U82A C85G C116U | ≤ -4.2
78 | A21C A60U G84A C95G C105U A110U | ≤ -4.2
79 | A21C A66G | -3.91
80 | A21C A89C C95U A142G | -3.16
81 | A21C A98U U135G | ≤ -4.2
82 | A21C A142C | 0.655
83 | A21C C27A A40U G46A C57U C87G G126A | ≤ -4.2
